Reference: the BET-seq Pho4 binding data (Le et al. 2018)
The list shows a part of the results. The energies were worked out here from pooled read counts, against the library average; single values are noisy.

molecular target: T1, Pho4 (S. cerevisiae) (UniProt P07270); assay: relative binding free energy (BET-seq); higher = weaker binding; conditions: reference: library average
T1 sequence: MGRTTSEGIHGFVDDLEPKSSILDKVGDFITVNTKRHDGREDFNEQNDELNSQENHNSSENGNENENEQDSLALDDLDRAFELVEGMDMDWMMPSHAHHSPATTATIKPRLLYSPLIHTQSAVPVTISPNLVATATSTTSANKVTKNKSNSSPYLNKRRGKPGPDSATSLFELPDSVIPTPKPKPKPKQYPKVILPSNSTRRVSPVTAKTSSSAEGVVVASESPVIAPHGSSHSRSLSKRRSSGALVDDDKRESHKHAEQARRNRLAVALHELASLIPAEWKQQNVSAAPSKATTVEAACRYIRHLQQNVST

Sequence	relative binding free energy [kcal/mol]
ATAGACACGTGTATGG	-0.03
CGGGTCACGTGGGTAT	0.02
TTCATCACGTGTTAGA	0.33
AATCTCACGTGGGTTT	0.13
TTCATCACGTGCGGGG	0.22
GTGCACACGTGTGTAG	-0.02
TAATACACGTGGTTAC	0.19
CTGTTCACGTGCAAGG	0.4
ATATTCACGTGGGGTC	0.07
TAATTCACGTGCTGAT	0.22
GGCGTCACGTGTTGAT	0.2
GAAAGCACGTGGCGGT	-0.08
TCTCACACGTGTGGTG	0.04
GTTATCACGTGGACGG	0.19
AGGCCCACGTGGGGGG	-0.27
TGATACACGTGGACGG	0.06
TGCTTCACGTGGGGCG	0.21
CGGATCACGTGGTTAT	0.13
AGGTCCACGTGAGAGT	0.17
CCCGGCACGTGGTGGG	-0.15
GGAAGCACGTGGTAAT	-0.1
CCAGGCACGTGGGTTG	-0.21
TGTGACACGTGTCAGG	-0.05

Sequence	relative binding free energy [kcal/mol]
ACGGCCACGTGAGGTG	0.09
TAGTCCACGTGTTGAT	0.07
GTGAACACGTGGGGGT	-0.14
GGAGTCACGTGCGTAA	0.14
GTGCTCACGTGGGAAT	0.3
CTAGTCACGTGTGATG	0.13
CAATGCACGTGGGTGA	0
TTACGCACGTGTCGGG	-0.1
TGTGACACGTGGGAAG	-0.08
GGGCGCACGTGGGTAA	-0.19
ATAATCACGTGAGTGA	0.18
GTTTTCACGTGGCTGA	0.27
GGCTTCACGTGAAGCG	0.43
AGCGACACGTGTGTGG	0.06
AGGGTCACGTGATGAT	0.16
ATATGCACGTGATTGG	0.14
TGGTCCACGTGTTGTA	0.08
GGGATCACGTGGCTAA	0.3
ATGGACACGTGGTTTC	0.05
GCTTTCACGTGAGTAT	0.48
AGGTTCACGTGCGGAT	0.17
TGTATCACGTGGTCCT	0.04
TTCTGCACGTGACGGG	0.17

Sequence	relative binding free energy [kcal/mol]
ACAGTCACGTGGAGGG	-0.06
AACTTCACGTGTGGGG	0.13
TTTTCCACGTGTGTCT	0.04
TATCGCACGTGTGTAT	-0.01
GGGCACACGTGTTATA	0.18
GATTGCACGTGTATTA	0.24
TGATTCACGTGAGAAA	0.48
GGATACACGTGATGGA	0.29
TTTTCCACGTGGTAGT	0.04
TGGGACACGTGCTTAG	-0.1
GCTTTCACGTGTCATT	0.35
CGATACACGTGCTGGG	0.17
AGGTGCACGTGGTGTT	-0.15
AGCTACACGTGGTGAG	0.03
GGTATCACGTGGCAGG	0.05
TCATACACGTGGGGGG	-0.01
GAGATCACGTGGGTGT	-0.06
CGTAGCACGTGGGTGG	-0.21
TTTGACACGTGATGTG	0.09
GTTTGCACGTGGTTTC	-0.02
GTAGGCACGTGTAAGT	-0.06
TCCTACACGTGGTGGG	0.05
TTTTCCACGTGTTGGC	0.3

Sequence	relative binding free energy [kcal/mol]
GGTTACACGTGTTGGC	0.24
GTTGCCACGTGAGGAT	0.17
GGGTTCACGTGTCGTG	0.19
GTACTCACGTGTAGTT	0.31
TGGAGCACGTGGCGGT	-0.15
TTAGGCACGTGACTGG	-0.1
AGTATCACGTGGAAAG	0.26
TAATGCACGTGGCGAT	0.05
TTATGCACGTGTCGAG	-0.09
TGTGGCACGTGAAGTA	0.24
TCGGGCACGTGGCCTG	-0.12
TTTCACACGTGAGTAG	0.35
GGTGCCACGTGGTAAG	-0.02
TGCTACACGTGGATGT	0.03
GTAAGCACGTGAAGTT	0.13
AATGGCACGTGCTGAG	-0.16
TTTAGCACGTGGATTT	-0.01
CATGTCACGTGGGTTA	-0.02
ACGGACACGTGTGTGG	-0.1
TTAACCACGTGTGGGG	0.04
GTTAGCACGTGTACGT	-0.04
AGTTTCACGTGGAAAA	0.23
TGTGGCACGTGATAAT	0.06

Sequence	relative binding free energy [kcal/mol]
TTTATCACGTGAGAGG	0.27
ATATGCACGTGTAGTC	-0.03
AGTTTCACGTGAAATG	0.37
TTGTCCACGTGTGAGG	0.15
TGCTGCACGTGGCGCT	-0.11
AAGGGCACGTGTAAAT	0
TCGGTCACGTGGTGTA	-0.01
TGTCACACGTGGGTCG	-0.23
TAGTTCACGTGGCTCT	0.35
TGAAACACGTGGAGGC	0.06
GGGAGCACGTGGTCGA	-0.16
CGTGGCACGTGAAATG	0.21
ATGGTCACGTGCTATT	0.05
TGTTTCACGTGTAGAG	0.27
GTCAGCACGTGGCGGG	-0.14
AGGGGCACGTGTCCAG	-0.14
TCCTGCACGTGTGGTG	0.07
TTGTACACGTGTCTTG	0
ATATTCACGTGAATAG	0.33
ATGGACACGTGATAAT	0.29
TATTACACGTGTAGTG	0.06
TAAGGCACGTGTCAGT	-0.08
GTTGCCACGTGGTCTT	-0.02
